Test results reported in US20120101087A1, “Generation of Combinatorial Synthetic Libraries and Screening for Novel Proadhesins and Nonadhesins” (priority 2007, published 2012).

Test system: Human Influenza A (H1N1)
Assay: microbe, parasite or virus in culture
Assay type: cell-based
[1] = Influenza A virus, H1N1, read-out: IC50 Influenza A, anti-infection (adhesion)
[2] = read-out: IC50 Influenza A, anti-infection (adhesion)

Molecule	IC50 [1] [µM]	IC50 [2] [µM]
CCN(CCOC(=O)/C=C/c1ccc(O)cc1)Cc1cc(Cl)ccc1O [Compound I]	66	–
CN(CCCNC(=O)c1ccc(O)cc1)CCCNC(=O)c1ccc2cc(O)ccc2c1 [III]	155	–
CN(CCCNC(=O)c1ccc(O)cc1)CCCNC(=O)c1ccc(O)cc1 [IV]	4080	–
O=C(O)/C=C/c1ccc(OS(=O)(=O)O)cc1 [Zosteric Acid, reference compound]	–	858
N-(3-{[N-(3-propyl)-6-hydroxy-2-naphthamide]-methyl-amino}-propyl)-4-hydroxy-benzamide [compound 1]	–	155

Read-outs that look alike come from different tables or passages of the source.
